The values that follow come from PMC5836133.

This is one part of the list. At the low end of the ranking the order means little.

This test concerns T1, GST-NbGlk1(82-244).
T1 sequence: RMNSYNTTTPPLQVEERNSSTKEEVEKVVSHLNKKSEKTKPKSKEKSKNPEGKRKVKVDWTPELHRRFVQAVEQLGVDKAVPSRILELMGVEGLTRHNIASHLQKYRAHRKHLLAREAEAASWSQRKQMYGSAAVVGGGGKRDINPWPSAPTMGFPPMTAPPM
The experiment in a line: protein-binding microarray.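 Further: rank-based score ranging −0.5 to +0.5 with E above 0.45 taken as significant binding.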 The note with it: NbGlk1 is a Golden2-like transcription factor of Nicotiana benthamiana; high values mean tight binding; most listed sequences are background and not binding sites; double strand, one strand shown.
AATACCGT registered a binding signal of -0.0547 E-score.
The same measure for AATTGCAT: 0.183 E-score; for AAGATATT: 0.393 E-score.
As for ACAAGTTA, the binding signal came out at 0.0146 E-score.
The same measure for AAACCTTC: -0.166 E-score; for AGGAGAAC: -0.109 E-score.
In turn, AAACTTTA registered a binding signal of 0.0379 E-score.
The same measure for AAAAGGGA: -0.0791 E-score.
To AAGGGCAA belongs -0.112 E-score; to ATGTCCTA, -0.0548 E-score; to AATTGGAT, 0.2 E-score.
To ACGCAGTG belongs -0.175 E-score.
ATCGCGAC had a binding signal of 0.287 E-score.
The same measure for ACACGTAT: 0.13 E-score.
The sequence ATCACTGA came in with a binding signal of 0.161 E-score.
To AAGTTAGA belongs 0.00555 E-score; to AACGAGCG, -0.114 E-score; to AACGCACC, -0.243 E-score.
The same measure for ATCCGTTA: 0.315 E-score; for AAGAGGAC: -0.251 E-score.
To AAGGTCGT belongs -0.116 E-score; to CACCAGCA, -0.0601 E-score.
ATATACCC displayed a binding signal of 0.0513 E-score.
To ACCTAGGC belongs -0.123 E-score; to AGTGGAAG, -0.0915 E-score.
The same measure for AGAGATAA: 0.0746 E-score; for AGACTACG: -0.0629 E-score.
The same measure for AAGTGTTG: -0.00112 E-score; for AATTGATC: 0.0759 E-score.
Sequence ATCCCGTA gave a binding signal of 0.31 E-score.
The same measure for ACAGAGGA: -0.0407 E-score; for AGAAAACC: -0.0632 E-score; for ACCAGGGA: -0.142 E-score.
Take AACTCCGC: the binding signal is -0.098 E-score.
The same measure for ACCTCGAG: -0.0958 E-score.
To AGTAGACT belongs -0.046 E-score; to ACTGAAAT, 0.278 E-score.
The same measure for AACTCCCA: -0.242 E-score.
For the sequence ATCATGTA, the binding signal amounted to 0.154 E-score.
In turn, ATATGCAC registered a binding signal of 0.266 E-score.
To AGAACGAT belongs -0.0187 E-score; to AAACTGAC, -0.0843 E-score; to ATTCCAAA, 0.17 E-score.
The same measure for CAAATCGC: 0.32 E-score; for ATCAAACG: 0.142 E-score; for ACTAGCAA: -0.0452 E-score.
Sequence AATCGCGG came in with a binding signal of 0.317 E-score.
To AACAAATT belongs 0.129 E-score.
To ACCGGGCA belongs -0.211 E-score; to AAATGATT, 0.197 E-score; to ACCGCTAG, -0.121 E-score.
For the sequence ACATTAAA, the binding signal amounted to 0.0476 E-score.
Sequence ATCGCCAG came in with a binding signal of 0.142 E-score.
To ATAACAAC belongs 0.147 E-score; to ACGATATG, 0.193 E-score.
To AGTGATTC belongs 0.282 E-score.
To ATAGCTCA belongs -0.0823 E-score.
ACTATCCC registered a binding signal of -0.0744 E-score.
To AAGCGTGC belongs -0.229 E-score.
In the case of ATCGCGGC, the binding signal turned out to be 0.208 E-score.
To AAGGATCC belongs 0.222 E-score.
Sequence AACGAAGT gave a binding signal of -0.157 E-score.
The same measure for ATATGATC: 0.171 E-score.
The same measure for ACCATTCC: -0.0305 E-score; for ACGCGTCC: -0.0191 E-score.
Sequence CACCGATA returned a binding signal of 0.256 E-score.
The same measure for ACCGGCAA: -0.0883 E-score.
To AGGTATCA belongs 0.0924 E-score.
In turn, AGCAAAGA showed a binding signal of -0.00752 E-score.
To ACCGATTA belongs 0.164 E-score.
In the case of ACGAACAT, the binding signal was -0.0713 E-score.
With ACTCGTTG, the binding signal was -0.114 E-score.
Sequence ATTCTTGC yielded a binding signal of 0.109 E-score.
AATCTCGA came in with a binding signal of 0.436 E-score.
For the sequence ATTACGGC, the binding signal came out at 0.278 E-score.
To AGAATGCT belongs -0.256 E-score.
To ACAAGCTG belongs -0.265 E-score; to ATTCACTA, 0.0894 E-score; to AAATGATA, 0.15 E-score.
To ATCATGCC belongs 0.047 E-score; to AAACCGAA, 0.125 E-score.
For the sequence ATTCGTTG, the binding signal came out at 0.118 E-score.
The same measure for ACATATGA: 0.0727 E-score; for ACTCTTGA: -0.156 E-score.
The same measure for ATTGCCTG: 0.182 E-score; for ACCGAGCG: -0.121 E-score.
The same measure for AGAGGTAC: -0.119 E-score; for ACCATCGC: -0.125 E-score.
The sequence AGGTACCG showed a binding signal of -0.112 E-score.
To ATAGCGCG belongs 0.117 E-score; to ACATGCTA, 0.0278 E-score.
ACGAGGAA displayed a binding signal of -0.00457 E-score.
The same measure for CACAATAC: 0.146 E-score.
CACTAGCA gave a binding signal of -0.182 E-score.
To AACACTCT belongs -0.159 E-score.
To AGACCGTA belongs 0.0163 E-score.
The same measure for ATGATTGC: 0.33 E-score; for ATTCACCC: 0.0183 E-score; for ATCTTCTA: 0.289 E-score.
The sequence ACCGGCGA came in with a binding signal of -0.038 E-score.
To AGCACCAA belongs -0.151 E-score; to ACCCTGAC, -0.131 E-score.
To ATGGTAGG belongs -0.0897 E-score.
Turning to AGGCCGGC, the binding signal was -0.25 E-score.
To ATTACCTA belongs 0.225 E-score; to AGGAATGC, -0.127 E-score.
To ACTATGCG belongs 0.0378 E-score.
To AACTATCT belongs 0.0149 E-score; to CACAATGA, -0.0475 E-score; to AGCATTTG, -0.0443 E-score.
Turning to AAAGCGCC, the binding signal was -0.212 E-score.
CACGACCA: the binding signal is -0.189 E-score.
AGAGCGGA registered a binding signal of -0.0645 E-score.
To ATGTTGCC belongs -0.0505 E-score; to AATGGTCC, -0.0798 E-score; to AGAGATGG, -0.127 E-score.
The same measure for AAGGGCGT: -0.251 E-score; for AACTGCTA: -0.0585 E-score; for AGGGTACT: -0.0881 E-score.
In turn, AAAGCTCT showed a binding signal of -0.22 E-score.
Turning to AAGTTGGG, the binding signal was -0.11 E-score.
In turn, ATAAGACA came in with a binding signal of 0.122 E-score.
To AGCGCGAA belongs 0.0125 E-score.
To AATCCACG belongs 0.406 E-score; to CAACGAGC, -0.197 E-score.
The same measure for ATATTAAC: 0.132 E-score; for AACACTGT: 0.0152 E-score.
Regarding ACTACGGA, the binding signal was determined as 0.0643 E-score.
To ACCGCTGG belongs -0.183 E-score; to ACTGGTAA, 0.172 E-score.
The same measure for ATACCAAG: -0.0789 E-score; for ACGTCTGG: -0.0875 E-score; for ACGCCCCC: -0.31 E-score.
The same measure for AAAGGCGT: -0.13 E-score; for ATCGACGC: 0.127 E-score; for ACTACTAT: 0.156 E-score.
ACTGACCC: the binding signal is -0.251 E-score.
To AATACGGC belongs 0.0978 E-score; to AGGCAGGC, -0.249 E-score.
Sequence AGTTTGGA came in with a binding signal of 0.14 E-score.
Turning to ATTCACGA, the binding signal turned out to be 0.0268 E-score.
Sequence AGGTGATG registered a binding signal of -0.198 E-score.
In turn, ACACAATG had a binding signal of -0.0803 E-score.
The same measure for ATCCTTTC: 0.151 E-score; for ATTGCTAG: 0.16 E-score.
To ACTACGAG belongs -0.0309 E-score; to CAACAGCA, -0.117 E-score; to ACAAAATC, 0.458 E-score.
To CAGACATC belongs 0.012 E-score.
Turning to ATTTCGGG, the binding signal worked out at 0.27 E-score.
To CACTACTC belongs -0.0916 E-score; to AGACAGAA, -0.0937 E-score; to ATCCTAAC, 0.254 E-score.
To ATTCGGCA belongs 0.197 E-score; to ACGGTTGA, -0.115 E-score.
The same measure for AACGTACT: -0.0379 E-score; for AAGTTCTG: -0.0105 E-score.
ACTGTTCC yielded a binding signal of -0.083 E-score.
With CAAGCTTC, the binding signal is -0.0967 E-score.
For CAATAAGA, the binding signal was -0.00121 E-score.
In turn, ACGGGTGA came in with a binding signal of -0.137 E-score.
AGCTCACG: the binding signal was -0.156 E-score.
The same measure for AACTCCTC: 0.00783 E-score; for ATCCATCC: 0.17 E-score; for CACCTGTA: 0.0667 E-score.
Sequence ACCTCACA returned a binding signal of -0.0681 E-score.
The same measure for AAATATTA: 0.313 E-score.
The same measure for ACTAACTA: 0.134 E-score; for AGTATTTC: 0.148 E-score.
As for AACTTTCC, the binding signal stood at 0.0335 E-score.
Sequence ATGGCCTC gave a binding signal of -0.313 E-score.
The same measure for ACGTCGAA: 0.0282 E-score; for AGTGACAC: -0.122 E-score.
In the case of AAATTTGA, the binding signal was 0.132 E-score.
The same measure for AACATTAC: 0.0383 E-score.
To ACCCAGTC belongs -0.166 E-score; to ACCGGCTA, -0.278 E-score.
The same measure for AGTGAAAC: -0.162 E-score; for ATGCGATC: 0.363 E-score.
Take AGTTCTTG: the binding signal was -0.0759 E-score.
ATCTAGGG returned a binding signal of 0.208 E-score.
The same measure for AGAGAACT: -0.0176 E-score; for ACAAGAGA: 0.277 E-score; for ATGGGAGG: -0.179 E-score.
To AAGCATCT belongs -0.0646 E-score; to AAGCCAAC, -0.189 E-score.
To ATCTTTGA belongs 0.318 E-score; to CAAGAGAG, -0.124 E-score.
For AACTGACA, the binding signal was -0.106 E-score.
The same measure for AGGAACTG: -0.105 E-score.
The same measure for AGGTTAAA: -0.0304 E-score.
To AGTCGGTG belongs -0.134 E-score; to ACATCGCC, -0.147 E-score.
Take CACCATAG: the binding signal is -0.0495 E-score.
The same measure for AACAGCGC: -0.0469 E-score; for AGGCGCCC: -0.288 E-score; for CAAAGGCC: -0.318 E-score.
The same measure for AATTATTC: 0.069 E-score.
The same measure for ACACCTGG: -0.206 E-score; for CAAGCATA: 0.0364 E-score.
The sequence CAGCCGGA had a binding signal of -0.109 E-score.
The sequence AACATCAC returned a binding signal of 0.00231 E-score.
The same measure for AGTTGCCC: -0.165 E-score.
To ATGGTAAA belongs 0.106 E-score; to ACATTTTA, 0.133 E-score; to AATTAAGT, 0.127 E-score.
On to AGTCTCTA, for which the binding signal was -0.139 E-score.
The same measure for AAGAGAAG: -0.0779 E-score; for ACAAGCCT: -0.0884 E-score; for AGGCAGCC: -0.134 E-score.
To ACCAACGG belongs -0.181 E-score.
As to ACCAATTC, the binding signal is -0.00393 E-score.
The same measure for ATAATAAT: 0.197 E-score; for AAAGTGCC: -0.132 E-score; for ACGACCGC: -0.267 E-score.
To AATGACGT belongs 0.0552 E-score.
The same measure for AGGCGAGG: -0.229 E-score; for CACCTACA: -0.0824 E-score; for ATAAAAAT: 0.292 E-score.
